The list shows a part of the results. Sequences were assembled here from the parent chain. Inactive controls read about 0.05.
B1: TEV protease; numbered along this chain (parent)
chain: MGESLFKGPRDYNPISSSICHLTNESDGHTTSLYGIGFGPFIITNKHLFRRNNGTLVVQSLHGVFKVKDTTTLQQHLVDGRDMIIIRMPKDFPPFPQKLKFREPQREERICLVTTNFQTKSMSSMVSDTSCTFPSGDGIFWKHWIQTKDGQCGSPLVSTRDGFIVGIHSASNFTNTNNYFTSVPKNFMELLTNQEAQQWVSGWRLNADSVLWGGHKVFMVKPEEPFQPVKEATQL

Variants of: B1
Assay: raw area under fraction-flipped curve 0-4 h after induction (AUC4h, not background-subtracted), DNA-recorder readout of cleavage of the substrate (dimensionless); higher = more cleavage of the substrate by the protease variant
Conditions: temperature: 34 °C; time window: 0-4 h after rhamnose induction
Procedure: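 In vivo DNA recorder in E. coli TOP10(DE3) ΔrhaA at 34 °C. Each TEVp single-site mutant (parent TEVp 0) is paired with a single-site variant of the 7-mer TEVs (canonical ENLYFQ|S). The substrate sits between flexible linkers in a Bxb1-sfGFP-TEVs-SsrA fusion, so cleavage stabilises Bxb1 and speeds flipping of a recombination array, read by NGS. The value is the raw area under the fraction-flipped curve over 0-4 h after rhamnose induction (AUC4h), with ≥20 reads per time point. It is not background-subtracted; inactive controls average about 0.047.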
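Note: Bxb1 expression induced with 0.2% (w/v) L-rhamnose at OD600 near 0.5, cultures sampled hourly, flipped fraction per protease–substrate barcode pair counted by paired-end Illumina sequencing.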

Row | Variant | area with substrate ENCYFQS | area with substrate ENDYFQS | area with substrate ENFYFQS | area with substrate ENMYFQS | area with substrate ENNYFQS | area with substrate ENQYFQS | area with substrate ENSYFQS | area with substrate ENTYFQS | area with substrate ENVYFQS | area with substrate ENWYFQS | area with substrate ENYYFQS | area with substrate ENAYFQS | area with substrate ENEYFQS | area with substrate ENHYFQS | area with substrate ENIYFQS | area with substrate ENKYFQS | area with substrate ENPYFQS | area with substrate ENRYFQS | area with substrate ENGYFQS
1 | MGESLFKGPEDYNPISSSICHLTNESDGHTTSLYGIGFGPFIITNKHLFRRNNGTLVVQSLHGVFKVKDTTTLQQHLVDGRDMIIIRMPKDFPPFPQKLKFREPQREERICLVTTNFQTKSMSSMVSDTSCTFPSGDGIFWKHWIQTKDGQCGSPLVSTRDGFIVGIHSASNFTNTNNYFTSVPKNFMELLTNQEAQQWVSGWRLNADSVLWGGHKVFMVKPEEPFQPVKEATQL [R10E] | 0.0644 | 0.0443 | 0.0692 | 0.0583 | 0.0653 | 0.0618 | 0.0735 | 0.061 | 0.0626 | 0.0615 | 0.0555 | – | – | – | – | – | – | – | –
2 | MGESLFKGPRDYNPISSSICHLTNESDGHTTSLYGIGFGPFIITNKHLFRRNNGTLVVQSLHGVFKVKDTTTLQQHLVDGRDMIIIRMPKDFPPFPQKLKFREPQREERICLVTTNFQTKSMSSMVSDTSCTFPSGDGIFWKHWIQTKDGQCGSPLVSTRDGFIVGIHSASNFTNTNNYFTSVPKNFMELLTNQEAQQWVSGWRLNADSVLWGGHKVFMVKPEEPFQQVKEATQL [P228Q] | 0.0687 | 0.0614 | 0.0533 | 0.0796 | 0.0608 | 0.0612 | 0.0896 | 0.0789 | 0.0689 | 0.0526 | 0.066 | 0.0433 | 0.0614 | 0.0487 | 0.163 | 0.068 | 0.0572 | 0.0565 | –
3 | MGESLFKGPRDYNPISSSICHLTNESDGHTTSLYGIGFGPFIITNKHLFRRNNGTLVVQSLHGVFKVKDTTTLQQHLVDGRDMIIIRMPKDFPPFPQKLKFREPQREERICLVTTNFQTKSMSSMVSDTSCTFPSGDGIFWKHWIQTKDGQCGSPLVSTRDGFIVGIHSASNFTNTNNYFTSVPKNFMELLTNQEAQQWVSGWRLNADSVLWGGHKVFMVKPEEPFQHVKEATQL [P228H] | 0.0685 | 0.0582 | – | – | 0.0629 | 0.0557 | 0.0601 | 0.0608 | – | 0.0997 | – | 0.0606 | 0.0687 | – | – | 0.0376 | – | 0.0545 | 0.0582
4 | MGESLFKGPRDYNPISSSICHLTNESDGHTTSLYGIGFGPFIITNKHLFRRNNGTLVVQSLHGVFKVKDTTTLQQHLVDGRDMIIIRMPKDFPPFPQKLKFREPQREERICLVTTNFQTKSMSSMVSDTSCTFPSGDGIFWKHWIQTKDGQCGSPLVSTRDGFIVGIHSASNFTNTNNYFTSVPKNFMELLTNQEAQQWVSGWRLNADSVLWGGHKVFMVKPEEPFQVVKEATQL [P228V] | 0.0761 | – | – | – | 0.0798 | 0.0721 | 0.0595 | 0.0647 | 0.0773 | – | – | 0.0584 | 0.0568 | – | 0.129 | 0.0653 | 0.0474 | – | –
5 | MGESLFKGPRDYNPISSSICHLTNESDGHTTSLYGIGFGPFIITNKHLFRRNNGTLVVQSLHGVFKVKDTTTLQQHLVDGRDMIIIRMPKDFPPFPQKLKFREPQREERICLVTTNFQTKSMSSMVSDTSCTFPSGDGIFWKHWIQTKDGQCGSPLVSTRDGFIVGIHSASNFTNTNNYFTSVPKNFMELLTNQEAQQWVSGWRLNADSVLWGGHKVFMVKPEEPFQPMKEATQL [V229M] | – | 0.0642 | 0.0638 | 0.08 | 0.0538 | 0.0552 | 0.0599 | 0.0384 | 0.0854 | 0.0314 | – | 0.087 | 0.0623 | – | – | – | – | – | –
6 | MGESLFKGPRDYNPISSSICHLTNESDGHTTSLYGIGFGPFIITNKHLFRRNNGTLVVQSLHGVFKVKDTTTLQQHLVDGRDMIIIRMPKDFPPFPQKLKFREPQREERICLVTTNFQTKSMSSMVSDTSCTFPSGDGIFWKHWIQTKDGQCGSPLVSTRDGFIVGIHSASNFTNTNNYFTSVPKNFMELLTNQEAQQWVSGWRLNADSVLWGGHKVFMVKPEEPFQPGKEATQL [V229G] | 0.0948 | 0.0596 | 0.0618 | 0.1 | – | 0.0518 | 0.0609 | 0.0697 | 0.0657 | – | – | 0.0692 | 0.0745 | – | – | 0.0611 | – | 0.0577 | 0.0702
7 | MGESLFKGPRDYNGISSSICHLTNESDGHTTSLYGIGFGPFIITNKHLFRRNNGTLVVQSLHGVFKVKDTTTLQQHLVDGRDMIIIRMPKDFPPFPQKLKFREPQREERICLVTTNFQTKSMSSMVSDTSCTFPSGDGIFWKHWIQTKDGQCGSPLVSTRDGFIVGIHSASNFTNTNNYFTSVPKNFMELLTNQEAQQWVSGWRLNADSVLWGGHKVFMVKPEEPFQPVKEATQL [P14G] | 0.0709 | 0.0595 | 0.0625 | 0.0927 | 0.0637 | 0.0603 | 0.0608 | 0.0652 | 0.0667 | 0.035 | – | – | 0.0564 | 0.0544 | 0.12 | – | 0.0565 | 0.0585 | 0.062
8 | MGESLFKGPRDYNPISSSICHLTNESDGHTTSLYGIGFGPFIITNKHLFRRNNGTLVVQSLHGVFKVKDTTTLQQHLVDGRDMIIIRMPKDFPPFPQKLKFREPQREERICLVTTNFQTKSMSSMVSDTSCTFPSGDGIFWKHWIQTKDGQCGSPLVSTRDGFIVGIHSASNFTNTNNYFTSVPKNFMELLTNQEAQQWVSGWRLNADSVLWGGHKVFMVKPEEPFQPVKEANQL [T233N] | 0.0493 | 0.0533 | 0.0587 | – | – | 0.0715 | – | – | – | 0.0611 | – | 0.0702 | 0.056 | 0.0667 | 0.126 | 0.0616 | – | 0.056 | –
9 | MGESLFKGPRDYNPISSSICHLTNESDGHTTSLYGIGFGPFIITNKHLFRRNNGTLVVQSLHGVFKVKDTTTLQQHLVDGRDMIIIRMPKDFPPFPQKLKFREPQREERICLVTTNFQTKSMSSMVSDTSCTFPSGDGIFWKHWIQTKDGQCGSPLVSTRDGFIVGIHSASNFTNTNNYFTSVPKNFMELLTNQEAQQWVSGWRLNADSVLWGGHKVFMVKPEEPFQPVKEARQL [T233R] | – | 0.053 | 0.0267 | – | 0.0629 | 0.0434 | 0.0578 | 0.0685 | – | – | 0.0588 | 0.0726 | 0.0626 | 0.0607 | 0.0912 | – | 0.0624 | 0.0598 | 0.069
